# Results reported in the BET-seq Pho4 binding data (Le et al. 2018).
# The other results are listed elsewhere or left out. The energies were worked out here from pooled read counts, against the library average; single values are noisy.
# Molecular target: T1, Pho4 (S. cerevisiae) (UniProt P07270)
# T1 sequence: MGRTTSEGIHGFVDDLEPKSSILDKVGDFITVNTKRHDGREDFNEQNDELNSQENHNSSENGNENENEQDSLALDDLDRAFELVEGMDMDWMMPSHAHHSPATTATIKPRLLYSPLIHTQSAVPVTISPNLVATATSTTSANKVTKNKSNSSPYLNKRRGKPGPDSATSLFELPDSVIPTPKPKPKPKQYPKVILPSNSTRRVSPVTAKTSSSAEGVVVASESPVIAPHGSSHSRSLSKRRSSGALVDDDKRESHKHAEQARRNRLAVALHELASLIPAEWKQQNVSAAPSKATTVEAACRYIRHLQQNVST
# Experiment: relative binding free energy (BET-seq); higher = weaker binding
# Conditions: reference: library average
row,Sequence,relative binding free energy [kcal/mol]
1,CGATTCACGTGCTGGG,0.22
2,ATGTGCACGTGCGGTA,-0.1
3,GAGGTCACGTGGGTAC,0.11
4,TGTAACACGTGTTTTT,-0.02
5,AATAACACGTGTTTGG,0.01
6,TTCTTCACGTGGGGGC,0.28
7,TTTATCACGTGCTTTG,0.11
8,AAGTGCACGTGTAAGG,-0.08
9,TGGTACACGTGGAGAA,0.13
10,TTCGGCACGTGTGTCG,-0.01
11,GTCTTCACGTGAAGTT,0.33
12,GCGGACACGTGATTGG,0.27
13,TACTGCACGTGTTGTA,-0.13
14,AGGACCACGTGGGTAT,-0.17
15,AGTAGCACGTGTTAAG,-0.01
16,TTCGGCACGTGGGGCC,-0.23
17,AGTGTCACGTGCGTTA,-0.11
18,ATAGACACGTGGTGCT,-0.05
19,TACATCACGTGATATT,0.28
20,GGTGGCACGTGGTGCA,-0.19
21,TGTGCCACGTGAAAGG,0.24
22,TGCAACACGTGAGGGT,0.31
23,ATTTTCACGTGTCAAT,0.29
24,GTGTGCACGTGATGAC,0.12
25,TATTTCACGTGGGCAG,0.05
26,GGTTACACGTGATTGC,0.37

row,Sequence,relative binding free energy [kcal/mol]
1,TGGGTCACGTGCATTG,0.12
2,GTTGGCACGTGATTGC,0.2
3,TGTATCACGTGAAAGG,0.36
4,GGTCGCACGTGTCGGG,0.07
5,TTGGGCACGTGGAGGT,-0.06
6,GTGTACACGTGGGTGA,0
7,GGGGGCACGTGATCAT,-0.11
8,GGGCGCACGTGGGACG,-0.12
9,TGAGACACGTGAAGTT,0.4
10,TTGGACACGTGGATTG,0.12
11,ATGCTCACGTGAGTTT,0.36
12,AGTTTCACGTGATGGC,0.35
13,TTTTACACGTGTATTC,0.1
14,GGTCGCACGTGGTATA,-0.06
15,ATTTGCACGTGATGTC,0.02
16,TTACACACGTGGGTAG,-0.16
17,AGCTCCACGTGGGGTG,-0.14
18,TAATTCACGTGTTTGT,0.25
19,AGTTGCACGTGCATTT,-0.06
20,CGGAGCACGTGTTGTA,-0.16
21,TTTGTCACGTGGGACC,0.17
22,TATTGCACGTGGGGGG,-0.18
23,GGGGACACGTGGAGAG,0
24,ACTTTCACGTGTTATT,0.21
25,GACGTCACGTGTTTAT,0.18
26,AAATGCACGTGTTTTT,-0.02

row,Sequence,relative binding free energy [kcal/mol]
1,ATAATCACGTGTTATT,0.1
2,TATGTCACGTGTAAGC,0.23
3,ACGATCACGTGTGTTG,0.11
4,GAGGGCACGTGCGGGA,-0.31
5,GGAGTCACGTGGGTAC,0.02
6,AGCTTCACGTGTAGGG,0.13
7,GTTGGCACGTGGCAAT,-0.1
8,GTCGACACGTGCGTGG,0.02
9,AATGGCACGTGGAAGA,0.03
10,TGTCTCACGTGGTTAT,0.04
11,TTGTTCACGTGGATTA,0.26
12,TGTGGCACGTGGTCTT,-0.11
13,GATGGCACGTGTTGTA,0.08
14,CTGAACACGTGGATGT,0.15
15,TGTCACACGTGTGTTT,0.1
16,TCGAACACGTGTGTTT,0.07
17,ATGTTCACGTGGGTGT,0.19
18,TAATGCACGTGGTGAA,-0.11
19,CGTTACACGTGTCTGT,0.03
20,AGTGTCACGTGTGCCG,0.17
21,GCGTGCACGTGTGTGG,-0.02
22,ATTTTCACGTGAGTTG,0.47
23,GTATTCACGTGGCTTG,0.27
24,ACGTGCACGTGGAGTT,-0.08
25,CGGTCCACGTGTTTGG,0.01
26,TTAATCACGTGGTGTC,0.07

row,Sequence,relative binding free energy [kcal/mol]
1,TTCTTCACGTGGGATC,0.32
2,CGGTTCACGTGGTTGA,0.09
3,AGTATCACGTGCAGGC,0.2
4,CTCGGCACGTGTGGGT,-0.1
5,TTTAGCACGTGATCTT,-0.02
6,TGGATCACGTGGTCGG,0.12
7,AGTGCCACGTGGAGGA,-0.16
8,TTATGCACGTGTGGAC,0.1
9,TTTCTCACGTGTGGGG,0.24
10,GGCGTCACGTGTCGGA,0.13
11,GGTCTCACGTGAGTTA,0.56
12,ATCTGCACGTGAGTGT,0.08
13,ACTTGCACGTGGTTGG,-0.05
14,GCGGTCACGTGAGGAG,0.21
15,TTCGACACGTGGAGAT,0.34
16,AGGCGCACGTGACGGG,0.11
17,TTGGGCACGTGGACGG,0.02
18,TGAAGCACGTGTCATT,0.05
19,CTGGTCACGTGGAATG,0.14
20,GTCGGCACGTGTGAGA,0.05
21,GCTCACACGTGGGGGG,-0.03
22,GGGCTCACGTGGTAAG,0.27
23,AGGTGCACGTGAGGGC,0.08
24,AGCGTCACGTGCGGGG,0.06
25,TGGAGCACGTGTTTAA,-0.08
26,ATTAACACGTGGTGCT,-0.17

row,Sequence,relative binding free energy [kcal/mol]
1,TCGTTCACGTGGGGCG,0.11
2,TGTGGCACGTGATCAG,-0.16
3,ATTGGCACGTGAGATA,0.06
4,GTCATCACGTGGTAGT,0.09
5,TGGTCCACGTGTGATA,0.08
6,TTGAGCACGTGTCCGG,-0.1
7,CTTGGCACGTGGCGGT,-0.22
8,GTGGTCACGTGGTTAG,0.18
9,CTGTCCACGTGTGGGG,0.03
10,TTTATCACGTGGCATA,0.08
11,GAGGGCACGTGAGGTA,0.17
12,ATGCACACGTGTGTGT,0.09
13,GGGCTCACGTGCGGGG,0.24
14,TCATACACGTGTTGTA,0.05
15,TTCTGCACGTGGGTGG,-0.12
16,GGAGGCACGTGCGTTG,-0.16
17,CAGTGCACGTGGTATT,-0.11
18,TTTGGCACGTGTTCAT,-0.13
19,TATGACACGTGGAAGG,-0.07
20,TGTGGCACGTGCATGC,-0.16
21,GTCTTCACGTGATGGG,0.45
22,ACAGTCACGTGTGCGT,0.16
23,GTTAGCACGTGAAAAT,0.4
24,CGTGGCACGTGTGGTG,-0.11
25,TTCATCACGTGGAGGT,0.11
26,GGTTGCACGTGTAAAG,0.08

row,Sequence,relative binding free energy [kcal/mol]
1,ATCTTCACGTGAATTG,0.39
2,CGGGTCACGTGTTCAT,0.06
3,GGTGGCACGTGGTAAT,0
4,TAGGTCACGTGGGAGC,-0.05
5,CGTGGCACGTGATTTG,0.17
6,CTGAACACGTGTTGTG,-0.06
7,TTGGACACGTGTTTTT,0.07
8,CGTATCACGTGTTAGT,0.14
9,GTTGGCACGTGGGCTG,-0.23
10,TGCGGCACGTGCGAGG,-0.23
11,GCGGCCACGTGGGTGT,-0.18
12,TCTGGCACGTGTGAGT,0.05
13,GTTATCACGTGGTAGA,0
14,GAGGACACGTGGAGTA,0.2
15,AGGGGCACGTGGGGTA,-0.18
16,TGAAACACGTGAGGTT,0.23
17,TCGGTCACGTGCGATT,0.19
18,TAGTACACGTGGGTAG,-0.08
19,AGTGGCACGTGGTATA,-0.2
20,CTTGTCACGTGGTGGT,0.05
21,TACAGCACGTGTGGGA,-0.05
22,GGATTCACGTGGCAGT,0.21
23,TTCATCACGTGATGTG,0.25
24,TAATTCACGTGATAAG,0.42
25,AAACGCACGTGGGGGA,-0.23
26,GGAGTCACGTGGGAAG,0.28

row,Sequence,relative binding free energy [kcal/mol]
1,ATAGTCACGTGCTTTA,-0.04
2,CCGTTCACGTGTGGGT,0.34
3,TATGTCACGTGGCGCT,-0.15
4,ACTCGCACGTGTGGGG,-0.11
5,GGCTGCACGTGTTATT,0.11
6,TCTTGCACGTGTTGCT,-0.07
7,TTTGGCACGTGGTAAA,-0.15
8,CTTAGCACGTGTGTGG,-0.09
9,GGGAACACGTGAGTTG,0.45
10,AGAAGCACGTGGCGTG,-0.08
11,CGTGCCACGTGGGGCA,-0.23
12,AGCGACACGTGGATTG,0.17
13,CAGTGCACGTGTGTTG,-0.02
14,ATTACCACGTGGGAGT,-0.1
15,TTCTTCACGTGCTGAT,0.2
16,TGAGTCACGTGTGTTT,0.18
17,AGTGGCACGTGGATTG,-0.14
18,GGAAACACGTGTGGGT,0.19
19,GATTACACGTGGTCTG,0.08
20,AGATGCACGTGCTAGG,-0.2
21,TGTCGCACGTGGTCGT,-0.1
22,CTAAGCACGTGTGGGA,-0.05
23,TTTACCACGTGTGTTA,-0.03
24,TTATGCACGTGAGACT,0.14
25,TTTATCACGTGTAAAG,0.19
26,TGATTCACGTGTCGGC,0.29

row,Sequence,relative binding free energy [kcal/mol]
1,TTAGACACGTGGTGAT,-0.03
2,GGGTGCACGTGCCGGT,-0.1
3,ATGTTCACGTGAATTA,0.31
4,GCAGTCACGTGGAGTG,0.09
5,TGCGGCACGTGTTGAT,-0.04
6,GAAGTCACGTGGAGGA,0.21
7,GAGTTCACGTGATGTA,0.32
8,TAGAGCACGTGGGACG,-0.19
9,TGTAGCACGTGCGAGA,-0.03
10,TGTGACACGTGGCCTG,-0.04
11,GGGGCCACGTGGGTCA,-0.17
12,TCGGGCACGTGCGCGG,-0.02
13,TCGCGCACGTGTGTTG,-0.1
14,TTGCGCACGTGTGAAG,0
15,ATAGTCACGTGTGGGG,0.25
16,ATGGTCACGTGTCTCG,0.16
17,AAGGACACGTGAGGGG,0.23
18,TGAGACACGTGGCTAG,0.12
19,CGTGGCACGTGGTTCG,-0.14
20,ATAAACACGTGGGCGT,-0.19
21,TCTGGCACGTGGCTGT,-0.07
22,GGCGGCACGTGGCTTT,-0.08
23,TGTGACACGTGAGTGA,0.26
24,GGGTGCACGTGGGCTG,-0.13
25,ATAGACACGTGATGTA,0.16
26,TTATTCACGTGAGACG,0.44

row,Sequence,relative binding free energy [kcal/mol]
1,TAGGGCACGTGATACT,0.05
2,CAGTGCACGTGGGTGG,-0.13
3,TTTAACACGTGTTTAT,-0.12
4,GGGGCCACGTGGGGTG,-0.25
5,GGAGACACGTGGAAGT,0.17
6,CGAAGCACGTGATGGT,0.02
7,GCGGTCACGTGTGGAG,0.08
8,TCGTGCACGTGTTTTG,0.13
9,AGGTTCACGTGAGCTG,0.35
10,TCGGGCACGTGTGAAT,0.03
11,GTAGTCACGTGAGCAG,0.48
12,GTTTGCACGTGCGTCT,-0.08
13,CGAGACACGTGGGGGC,-0.11
14,CGAGACACGTGGGAGG,-0.08
15,GAAGTCACGTGGCTGG,0.14
16,CACATCACGTGGGGGT,0.08
17,AAGTGCACGTGTTGCG,-0.16
18,CGTCGCACGTGGAGGG,-0.11
19,GTATACACGTGTGCTT,0.01
20,TTGTACACGTGTTAAG,0.1
21,AGGGACACGTGTGAAG,-0.04
22,ATTTGCACGTGAAAGT,0.35
